14 molecules from PMC12136788 can be followed below.

Sequences and labels used below:
B1: chr10:62095068:62095169:+|3pUTR|ENSG00000150347|msi1|total|mutant (ssRNA)
RNA: GGGAGUUCUACAGUCCGACGAUCCCAUUUGCUUCAAUUAAUUAUUUACCUUCCUGUGGAAUAAUAUAUAUAUAUAUAUUUAACCGAACCACCGACCGACCCGCCGAAUUCCGAUUAUAAAUGUGUGAGUGCAGAUUAUCCUGCCAACAGAGGAUUGAGCAUCA
B2: chr11:111497102:111497409:-|CDS|ENSG00000137707|control|control|control (ssRNA)
RNA: GGGAGUUCUACAGUCCGACGAUCGCCGUUAGUAGAGCCUCAUCAGACGUUUCCUCUGGCACUUCCUGCGAUGAAGAAAGUUGUAGCAAGGAACCUCGUGUCAUUCCUAAAGUCAGCAAUCCGAAGAGUAUUUAUCAGGUCAAGCAACAGAGGAUUGAGCAUCA
B3: chr5:72207278:72207408:+|3pUTR|ENSG00000131711|msi1_unk|total|mutant (ssRNA)
RNA: GGGAGUUCUACAGUCCGACGAUCAGAGAACAAUGACCUCAUUUUAUUUUCUAUGUCCGUUAUUUAUUUCAAAAUUAACAUUUCCGUUGAUUUUUGUCUGAUAAGUCUAUGUUUUGCACUGCUAACUAUGAUGAGGGUUUAAAACAACAGAGGAUUGAGCAUCA
B4: ENSG00000131504:stop:overlap|stop_codon|ENSG00000131504|stop_codon|NA|stop_codon (ssRNA)
RNA: GGGAGUUCUACAGUCCGACGAUCAGGAGGAGGAGACCUUUAAAUUGCCAACAGGAAGGCCGGGUGUGCAGUCACAUCUCUGCUAGCUUCGGAGCUGACCAAGGAUGAUGCCAUGGCUGCUGUUCCUGCCAAGGUGUCCAAGAACAACAGAGGAUUGAGCAUCA
B5: chr6:21231557:21231658:+|3pUTR|ENSG00000145996|msi1|total|mutant (ssRNA)
RNA: GGGAGUUCUACAGUCCGACGAUCAAGCCGCUGGGAUUACAGGCAUGCGCCACCAAGCCCAGACAAUUUUUUUGUGUUUUCAGCCGAGACGGAGUUUCACCAUGUUGGCCAGGCCCGUCUCGAACUCCUGACCUCAAGUGAUCCCAACAGAGGAUUGAGCAUCA
B6: chr10:96982068:96982170:+|CDS|ENSG00000196233|unk|total|mutant (ssRNA)
RNA: GGGAGUUCUACAGUCCGACGAUCUCAGCAUUGGCAUCAGAGGCAGUUUUCACUCCUAAGCAGACCCUUACAAUUCCAGCCCCCCGACAUACAGCCGAUGUGCAGCUUCCCAGAGAAGACAACCCUGAAGAACCCCGCAAGGAACAACAGAGGAUUGAGCAUCA
B7: chr20:45898604:45898705:+|3pUTR|ENSG00000064601|unk|FALSE|unique (ssRNA)
RNA: GGGAGUUCUACAGUCCGACGAUCAGAGCCCUGUACAUCCCAGACUGGGCCCAGGGUCUCCCAUAGACAGCCUGGGGGCAAGUUAGCACUUUAUUCCCGCAGCAGUUCCUGAAUGGGGUGGCCUGGCCCCUUCUCUGCUUAAAGCAACAGAGGAUUGAGCAUCA
B8: chr6:89084018:89084151:+|CDS|ENSG00000146278|unk|total|mutant (ssRNA)
RNA: GGGAGUUCUACAGUCCGACGAUCACUGAAGUGAGCCAAAAGGAAAAUUAUGCUGGGGCAAAGUUCCGUGAUCCACCUUCUCCCCGUGUUCUUCCAAAGCCUCCCCGUCACUGGAUGGGAAGCACUGUUGAAAAUUCCAACCAACAACAGAGGAUUGAGCAUCA
B9: chr6:106663037:106663138:+|CDS|ENSG00000130348|msi1|total|mutant (ssRNA)
RNA: GGGAGUUCUACAGUCCGACGAUCAGCACAGAAAGUGAGACGCCUCAUUGCUAAUGACUUUGUAAAUGCUUUUAACUCUGGAGCCGAUGUCUUGCUAACUCCCACCACCUUGAGUGAGGCAGUACCAUACUUGGAGUUCAUCAACAACAGAGGAUUGAGCAUCA
B10: chr10:128098466:128098636:-|3pUTR|ENSG00000148773|msi1|total|mutant (ssRNA)
RNA: GGGAGUUCUACAGUCCGACGAUCUCCUUUCCUUUCUGAAAAUAAAGUUUUGUGCUUUGGAGAAUGACUCGUGAGCACAUCUUCCGGGACCAAGAGUGACUUUCUGUAAGGAGUGACUCGUGGCUUGCCUUGGUCUCUUGGGAACAACAGAGGAUUGAGCAUCA
B11: chr6:133987709:133987810:+|3pUTR|ENSG00000028839|unk|FALSE|unique (ssRNA)
RNA: GGGAGUUCUACAGUCCGACGAUCAAUAACAAAUAGGAAUUUUUUUUCUUGCAGAUUAGAAAUAAAAACGUGUAUAUAAACUCUAGGGAACCAGACUAGAAGUUUAUAGAUAAAGGAUAAUGUUUUAUGUUGCUAAUUUAAUAUCAACAGAGGAUUGAGCAUCA
B12: chr17:50110931:50111032:+|3pUTR|ENSG00000005882|unk|FALSE|unique (ssRNA)
RNA: GGGAGUUCUACAGUCCGACGAUCUGUGCCCAGACAUGUGUGCUCAGGGUGGCUUUCUCCCUAGGACCUUCUGUGUAUAUAGUUAGUUUUAUAACCCUGAAUGCCCCCACCCUUCCCCUAAGCACACAGGGGUUAAAGCUGUGUCAACAGAGGAUUGAGCAUCA
B13: chr2:20282997:20283108:-|CDS|ENSG00000055917|unk|total|mutant (ssRNA)
RNA: GGGAGUUCUACAGUCCGACGAUCACUAAUCUGCAAUCUAAUUCAUUUUAUGGAAGCAGUUCUUUGACUAACCGCUCCCAGAGCCGUUCUUUAUUUUCUCAUGGACCUGGUCAACCUGGAAGUACAUCUCUUGGCUUUGGAAGUCAACAGAGGAUUGAGCAUCA
B14: chr9:96818597:96818698:-|CDS|ENSG00000196597|unk|total|mutant (ssRNA)
RNA: GGGAGUUCUACAGUCCGACGAUCGGAGAAACCAUUCGAAUGUCAUGAAUGUGGGAAAUCUUUUAACUAUAAGUCAAUCCUCACCGUGCAUCAGAGAACUCACACAGGGGAGAAACCUUUUGAAUGUAAUGAAUGCGGGAAAUCCAACAGAGGAUUGAGCAUCA

Some of the results follow.

In the experiment the target is MSI1 full-length (mouse, UniProt Q61474 1-362). Description: nsRBNS (natural sequence RNA bind-n-seq); RBNS binding buffer (assumed for nsRBNS): 25 mM Tris pH 7.5, 150 mM KCl, 3 mM MgCl2, 0.01% Triton X-100, 500 ug/ml BSA, 20 U/ml SUPERase-In, 4 C; UNK is unkempt and MSI1 is Musashi-1; names of the RNAs are library labels; protein concentration not given here; high values mean tight binding.
Chain of UniProt Q61474 (Q61474 whole entry): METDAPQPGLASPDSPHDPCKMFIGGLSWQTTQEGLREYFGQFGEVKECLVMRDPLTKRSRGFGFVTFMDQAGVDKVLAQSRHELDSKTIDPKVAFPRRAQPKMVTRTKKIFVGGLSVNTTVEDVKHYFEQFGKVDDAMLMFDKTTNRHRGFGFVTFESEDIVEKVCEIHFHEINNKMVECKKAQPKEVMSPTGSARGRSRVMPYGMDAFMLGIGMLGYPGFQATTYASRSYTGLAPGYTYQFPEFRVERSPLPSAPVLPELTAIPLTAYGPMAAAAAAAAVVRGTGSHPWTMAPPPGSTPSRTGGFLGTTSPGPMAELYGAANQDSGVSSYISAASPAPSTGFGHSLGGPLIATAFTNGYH
On to B1, for which the binding signal worked out at 9.42 enrichment R.
In the case of B2 it was 0.862 enrichment R; in that of B3, 0.411 enrichment R.
The value for B4 was 0.458 enrichment R; that for B5 was 0.337 enrichment R; that for B6 was 0.742 enrichment R.
The value for B7 was 0.656 enrichment R; that for B8 was 0.315 enrichment R; that for B9 was 0.409 enrichment R.
B10 showed a binding signal of 0.344 enrichment R.
B11 showed a binding signal of 1 enrichment R.
In the case of B12 it was 9.31 enrichment R.
Molecule B13 registered a binding signal of 0.305 enrichment R.
In the case of B14 it was 0.442 enrichment R.
